Experimental data: patent US20220389066A1, “POLYPEPTIDES” (Affibody AB, priority 2019, published 2022)

Legend:
HMGB2 = target: T1, HMGB2 (Homo sapiens, UniProt P26583); assay: SPR binding specificity study, HMGB2; conditions: analyte HMGB2; captured on HSA
T1 construct: purchased Biorbyt orb180287
T1 sequence (P26583 1-209): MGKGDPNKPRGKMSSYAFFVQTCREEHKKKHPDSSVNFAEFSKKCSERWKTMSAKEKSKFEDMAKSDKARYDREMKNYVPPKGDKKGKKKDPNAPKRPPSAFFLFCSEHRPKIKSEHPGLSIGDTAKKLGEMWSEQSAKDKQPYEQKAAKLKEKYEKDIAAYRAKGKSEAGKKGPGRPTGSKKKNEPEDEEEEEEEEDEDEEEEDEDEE
Method: (§1) HSA (Albucult®, Novozyme) was diluted to 10 μg/ml in acetate, pH 4.0, and immobilized onto a CM5 sensor chip using a Biacore 2000 instrument. Immobilization was performed by amine chemistry, using amine coupling kit, according to the manufacturer's instructions. The first surface of each chip was activated and deactivated for use as a reference cell (blank surface) during analyte injections. HBS-EP was used as running buffer, supplemented with 1.5 mM DTT when analyzing the binding to HMGB1(red). ZZA4263 was injected at a concentration of 100 nM for 4 minutes over the HSA and the reference sensor chip surfaces at a constant flow rate of 30 μl/min. This was followed by 4 minutes' injection of 0, 8.3, 25, 75, 225 and 675 nM of HMGB1(red), HMGB1(disulfide), HMGB2 (Biorbyt, cat. no. orb180287), HMGB3 (Biorbyt, cat. no. orb180288), SP100 (Biorbyt, cat. no. orb169341), TNF (R&D Systems, cat. no. 210-TA), IL-6 (R&D Systems, cat. no. 206-IL) and IL-1β (R&D Systems, cat. no. 201-LB/CF), respectively. The proteins were allowed to dissociate for 20 minutes before the chip surfaces were regenerated by two 10 second pulses using 10 mM HCl. The reference surface and the buffer sample were subtracted from all curves. The buffer sample was subtracted to adjust for the dissociation of ZZA4263 from HSA. […]

IL-1β = target: T2, IL-1β (Homo sapiens, UniProt P01584); assay: SPR binding specificity study, IL-1β; conditions: up to 675 nM analyte
T2 construct: purchased R&D Systems 201-LB/CF
T2 sequence (P01584 117-269): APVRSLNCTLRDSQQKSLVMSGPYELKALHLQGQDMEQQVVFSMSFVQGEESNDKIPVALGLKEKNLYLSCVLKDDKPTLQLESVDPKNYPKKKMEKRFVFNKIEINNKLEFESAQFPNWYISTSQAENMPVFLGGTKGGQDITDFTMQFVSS
Method: as §1

HMGB2, HMGB3, SP100 = assay: SPR binding specificity study, homologous proteins relative to HMGB1(red); set-up: species or system human; conditions: ratio of KD values
Method: as §1

PK study in rat = assay type: in vivo, Sprague Dawley (SD) rats; conditions: i.v., 1.6 mg/kg
Method: PK study in rat: Six female Sprague Dawley (SD) rats were divided into two groups for crosswise sampling. ZZA4263 was administered as a bolus injection through tail vein at 1.6 mg/kg (83 nmol/kg) at a slow and steady rate. The dosing volume administered was 1 ml/kg. Serum samples (0.2-0.3 ml) were collected from tail vein of each rat at time points 0 (predose), 30 min, 3 h, 24 h, 120 h, 216 h, 336 h and 456 h for group 1 and at time points 0 (predose), 5 min, 1 h, 8 h, 72 h, 168 h, 264 h, 408 h and 504 h for group 2. To prepare sera, the blood samples were left at RT for at least 30 min before centrifugation at 2000×g for 5 min. Sera were extracted and transferred into pre-labelled test tubes and stored at −20° C.
Quantification by ELISA: 96-well half area plates were coated with mouse anti-Z monoclonal antibody (2 μg/ml) in PBS (50 μl/well) and incubated overnight at 4° C. Plates were washed in PBST and blocked with PBSC for 1.5 h. ZZA4263 standard and serum samples were added to the plates (50 μl/well) and incubated for 1.5 h at RT. The ZZA4263 standard was diluted at 10 different concentrations between 1.3-50 μM in PBSC+1% mouse or rat serum pool. Serum samples were diluted 100× (minimal required dilution) in PBSC and titrated in 1:2 steps in PBSC+1% mouse or rat serum pool. […] The absorbance at 450 nm was measured in a 96-well plate reader (Victor3). […]

CLP-induced sepsis = CLP-induced sepsis model in mice; assay type: in vivo, C57BL mice
Method: The animal study in C57BL mice was performed at Pharmaseed Ltd. (Israel) in compliance with The Israel Animal Welfare Act and following The Israel Board for Animal Experiments Ethics Committee approval # IL-19-1-49. On day 1, sepsis was induced following a modification of a previously published method of CLP (Ruiz et al (2016), Intensive Care Medicine Experimental 4:22-35). Sham operated control mice (n=10) were anesthetized and underwent laparotomy without puncture or cecal ligation. Sepsis induced mice were divided into groups of twenty. […] 0.14 mg/kg ZZA4263, 1.4 mg/kg ZZA4263, 25 mg/kg imipenem/cilastatin (antibiotics positive control) and vehicle (PBS), respectively, were administered i.p. to mice on day 2, 3, 4 and 5 (first dose 24 h after the surgery). […] Until termination of the study on day 7, mice were monitored with regard to morbidity and mortality (twice daily), Murine Sepsis Score (MSS; twice daily), body weight (once daily) and body temperature (twice daily).

[1] = 0.14 and 1.4 mg/kg i.p. on day 2, 3, 4 and 5

B1: ZZA4263: heterodimer ZH27/ZH32, format Z(boxB)-L2-Z(boxA)-ABD (protein)
chain: AEAKYAKEAWLAEQEIWQLPNLTEAQFQAFILKLIDDPSQSSELLSEAKKLNDSQAPKGAPGGGGSTSAEAKYAKEDWDAFWEIIWLPNLTDAQQRAFIYKLEDDPSQSSELLSEAKKLNDSQAPKASGSLAEAKEAANAELDSYGVSDFYKRLIDKAKTVEGVEALKDAILAALP
modifications: Engineered HMGB1 binding polypeptide
notes: heterodimer ZH27/ZH32, format Z(boxB)-L2-Z(boxA)-ABD
For B1, the “ka” value (HMGB2) was 180000 M⁻¹ s⁻¹, the “kd” value (HMGB2) was 0.00036 s⁻¹ and the “binding to IL-1β” value (IL-1β) was “No significant binding”. The “lower affinity for HMGB2, HMGB3, SP100 compared to HMGB1(red)” value (HMGB2, HMGB3, SP100) was 17-550 times, the “estimated t½” value (PK study in rat) was 25 to 36 h and the “Murine Sepsis Score (MSS) compared to vehicle” value (CLP-induced sepsis; [1]) was “lower MSS”. For the same molecule, the “survival rate compared to vehicle” value (CLP-induced sepsis; [1]) was “dose dependent increased survival rate”, the “Murine Sepsis Score (MSS) compared to imipenem/cilastatin” value (CLP-induced sepsis; both dose groups, 0.14 and 1.4 mg/kg, imipenem/cilastatin 25 mg/kg) was “lower MSS compared to the group receiving positive control imipenem/cilastatin” and the “survival rate compared to imipenem/cilastatin” value (CLP-induced sepsis; higher dose group, 1.4 mg/kg, imipenem/cilastatin 25 mg/kg) was “increased survival rate compared to imipenem/cilastatin”.
